In the supplement of paper PMC3334620:
The full ranking holds about 33,000 sequences; the median of “E-score (-0.5 to 0.5)” is about -0.035, and the highest 2% start at about 0.34. The list shows a part of the results.

Biological target: T1, Mot3 (UniProt P54785)
T1 sequence: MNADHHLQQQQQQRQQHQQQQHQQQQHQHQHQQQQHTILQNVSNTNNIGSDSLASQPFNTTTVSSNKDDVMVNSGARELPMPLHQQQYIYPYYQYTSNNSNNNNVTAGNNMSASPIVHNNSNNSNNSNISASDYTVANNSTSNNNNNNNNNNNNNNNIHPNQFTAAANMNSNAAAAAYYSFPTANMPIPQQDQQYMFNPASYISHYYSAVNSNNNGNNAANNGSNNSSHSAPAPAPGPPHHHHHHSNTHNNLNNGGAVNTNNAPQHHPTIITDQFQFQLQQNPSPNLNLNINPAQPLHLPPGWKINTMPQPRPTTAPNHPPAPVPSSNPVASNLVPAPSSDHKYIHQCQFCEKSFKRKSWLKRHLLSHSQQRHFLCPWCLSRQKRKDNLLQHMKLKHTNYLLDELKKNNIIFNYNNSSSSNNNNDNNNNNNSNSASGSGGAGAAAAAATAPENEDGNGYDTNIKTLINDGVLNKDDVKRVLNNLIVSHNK
Experiment: PBM E-score (8-mer binding enrichment) (E-score (-0.5 to 0.5)); higher = stronger / more preferred TF binding; most listed sequences are background and not binding sites
Settings: protein concentration: 200 nM; construct: GST-full length
Summary of the method: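 Universal all-10-mer Agilent arrays, double-stranded by primer extension on fresh or once-stripped slides, were probed with about 100-200 nM GST-tagged yeast transcription factors made by PURExpress. Fluorescent anti-GST detected bound protein, and masliner normalised the scans. E-scores from the Universal PBM Analysis Suite were given to each ungapped eight-base word pooled with its reverse complement.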

| Sequence | PBM E-score |
| --- | --- |
| GTCTTTCA | -0.0122 |
| ACGTTTGC | 0.0468 |
| ACAGACAT | 0.109 |
| CCCCCACA | -0.228 |
| CCACGCCC | -0.268 |
| ACTTGTCT | 0.0723 |
| AGACGGGA | -0.146 |
| ATTCTCCA | -0.174 |
| ACTAACTC | -0.0537 |
| ACGTCGAT | 0.129 |
| CTGGGTCA | -0.176 |
| TATAGATA | -0.0617 |
| ATGGACTC | -0.262 |
| ATTCAACG | 0.117 |
| ATTGTAAA | 0.3 |
| ACCTATAC | 0.249 |
| CGTGCCAA | -0.0767 |
| TCACGCAA | 0.181 |
| CGTCACTC | -0.219 |
| AGGGGCTA | -0.0392 |
| AAATAAAT | 0.0867 |
| CATGTGCG | 0.0734 |

| Sequence | PBM E-score |
| --- | --- |
| GAGCTGTA | -0.0618 |
| CCCTGTTA | 0.12 |
| GGCGGCAC | -0.201 |
| AGTGGTGG | -0.235 |
| GGGAGTTA | -0.166 |
| CGGACCAA | -0.13 |
| CGGGTCTC | -0.0431 |
| AACCAGAT | -0.0683 |
| ACCGTAAC | -0.035 |
| AGACTAAC | 0.0197 |
| GTTTCTGA | 0.112 |
| TGCTCGAA | 0.0241 |
| CCCTAAAC | -0.142 |
| ATAGAATG | -0.0895 |
| CGCGAGCA | -0.187 |
| CCCTCATA | -0.134 |
| GGCCTGCA | -0.0526 |
| ATACTTAG | -0.105 |
| AGTTTTCG | 0.0727 |
| GGGGCAAC | -0.0256 |
| AAGCCCCC | -0.354 |
| GCATGGGC | -0.26 |

| Sequence | PBM E-score |
| --- | --- |
| TACCACCA | -0.215 |
| ATTTCTGA | 0.0425 |
| CTAAACGC | 0.0702 |
| ACCGTTTA | -0.0229 |
| AAGTTAAG | 0.0804 |
| ATTAGTGG | 0.0392 |
| CTCTATAC | 0.0402 |
| AGCGCTAA | -0.108 |
| TCTAGAAA | -0.0747 |
| TAATACGA | 0.156 |
| AGACCTAA | -0.161 |
| CAATCCCC | 0.0148 |
| AGGGGGCG | -0.136 |
| CAACTGTG | 0.16 |
| AGTCTACA | 0.16 |
| CATGCCGA | 0.0179 |
| AGTTCAAC | 0.105 |
| ATACTCAA | -0.00206 |
| CATACGAC | 0.0019 |
| CTCCAACA | 0.139 |
| CATTAGGC | 0.178 |
| AGCGTGAG | -0.164 |

| Sequence | PBM E-score |
| --- | --- |
| ATGCAGTG | 0.0731 |
| AATTCGCT | 0.043 |
| ACGACCTA | 0.0207 |
| AGGGCTTA | -0.107 |
| ACCTTCCA | 0.144 |
| GATATGAC | 0.0279 |
| GGACTCCC | -0.264 |
| AAATACAG | 0.212 |
| TAACAAGA | 0.309 |
| AATAACCC | -0.0722 |
| CGGACTCA | -0.172 |
| AATGTGGT | 0.0468 |
| AATCATGG | -0.0485 |
| TGAGGGAA | -0.122 |
| ATTTAAGG | 0.00043 |
| CTACGCTA | 0.00073 |
| AACGTCTC | 0.115 |
| AATAGTCA | -0.0175 |
| AGCAGGCC | -0.0206 |
| GCTCCAAA | -0.137 |
